In the supplement of paper PMC3334620:
Over roughly 33,000 sequences, “E-score (-0.5 to 0.5)” has its median near -0.056; the highest 2% begin near 0.38. Some of the results follow.

What follows are sequences tested against Stb4 (UniProt P50104) (assay: PBM E-score (8-mer binding enrichment) (E-score (-0.5 to 0.5)); higher = stronger / more preferred TF binding; most listed sequences are background and not binding sites). Conditions: protein concentration: 200 nM; construct: GST-DNA-binding domain.
Method in brief: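 PURExpress in vitro transcription/translation supplied GST-tagged yeast transcription factors, either full-length or DNA-binding domain. Applied at about 100-200 nM to universal all-10-mer Agilent arrays double-stranded by primer extension, the bound protein was detected with fluorescent anti-GST. E-scores, modified Wilcoxon-Mann-Whitney statistics, were given by the Universal PBM Analysis Suite to ungapped eight-base words pooled with their reverse complements after masliner normalisation.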

Sequence	PBM E-score
AGTGTCGA	0.0114
CCGTGCCA	0.0921
GGCAAAAC	0.136
CACGAAAC	-0.119
ACGATATA	-0.113
CACAGAAG	-0.211
CCTCCAAC	-0.242
TCATCCGA	0.473
TAGCAGCA	-0.269
CCGACGCG	0.397
ATATAAGC	-0.0633
TAATGGGA	-0.277
ACATGCTC	-0.101
GAAATTTA	-0.0277
ATAAAAGG	-0.0722
GGAAAGAC	0.182
TCTATTAA	-0.0416
AGTCCAAG	-0.149
GCAATACC	-0.069
GCGACCTA	-0.11
AGGACAAC	-0.109
GCTGGTGA	-0.0202
CCTAAGCG	-0.0227
CTGGCAAG	-0.185
CAGTAGAG	-0.221

Sequence	PBM E-score
AGCTTATG	-0.168
ATTATCTC	0.0642
TAAGGAAA	-0.0592
CGGTTCGA	0.206
AGAGCCGG	0.24
ATTGTTAC	0.0363
GGTGCAAC	0.163
GAGTCGGA	0.387
ACGCCGAG	0.352
AGCTCGCG	-5e-05
CACGACCG	-0.128
AGGACGCG	-0.01
AAAAGACG	-0.089
ACGTCTGC	-0.116
ACAAGTTA	0.0953
ATGAAGAA	-0.085
GCTCATAC	-0.231
GAAAGCCC	0.0933
ATCAAGCA	-0.0436
CTGCGGTC	-0.16
TATGACGA	-0.111
AGTCTATG	-0.315
CCTTAAAA	-0.413
ATCCATAG	-0.0183
CCAGTATA	-0.0596

Sequence	PBM E-score
GGCTGGTA	0.0186
CCGATTCC	0.348
AGGTGCAG	-0.204
CCATCGGG	0.297
AGTTGTGC	-0.0711
ATACTGGC	-0.19
AACGTGGT	-0.149
GATCCACC	-0.00862
GAATTCTC	0.181
AGAGCCCA	-0.152
ACTCCACA	-0.195
ATTCGGGC	0.301
CTACTCAC	-0.127
AACGGTTG	-0.165
GAGTATAA	-0.00582
TCCCTAAA	-0.213
AGACGGAA	0.285
ACGAATTA	-0.00352
AAAGTGAA	-0.126
CCCAATGC	-0.17
CCCTGGTC	-0.161
ACCTGAAT	-0.00737
GTAATTTA	0.0332
GCGCGGAC	0.0044
CGTTTTAA	-0.114

Sequence	PBM E-score
ACCAAAGG	-0.233
CTAACTCA	-0.262
ATCGAACA	-0.22
CTAGATTC	0.018
CGGATGGC	0.347
GCGTTCGA	-0.248
ACATTTTA	-0.0015
AGCCCAAA	-0.11
GGCGCAAA	0.021
CCCGCCAA	0.232
GCCAGAGC	-0.195
CGGGCGGC	0.186
ACAGCAGT	-0.0352
CGTGGGTC	-0.185
AGAGGGAC	-0.222
CGAAGCGA	0.0309
AAACTCAA	0.0329
ATGTTTCC	0.261
AAGTGACT	-0.0801
CCTGGTGA	-0.225
CAATCTCC	0.0935
AACCCGAC	0.324
CAGCGTTC	-0.00962
AATGTATA	0.0432
GCATGGAA	0.0186

Sequence	PBM E-score
ACTACTCT	-0.216
GACCGAGC	0.291
ACTGGACA	-0.1
ACGTGACA	-0.218
AGAAACCT	0.0967
ACACCGAA	0.265
GTCCGTCA	0.0792
AGCGTCTA	-0.135
CTTCAAAA	-0.184
CAGTCAGC	-0.0974
AAAATGGA	0.0859
GAATCGAA	-0.11
ACTCAATA	-0.0696
CATGTACG	0.00195
GCAATAAC	-0.0319
GACCGACA	0.165
GCTTTATA	-0.0172
AATAGGAC	-0.167
AATCGTAC	-0.0162
ATAGTATA	0.0732
AACACTAT	-0.0377
AGTGTCAC	-0.085
AGAGTAAG	-0.226
CCGTGCAA	0.0384
GGATGACC	0.0622

Sequence	PBM E-score
TACAACTA	-0.0303
AGCAGCAC	-0.196
ATGAAACA	-0.00932
CTGTCGTC	-0.179
AGGGGTCG	-0.202
CTGCTGAA	-0.191
GACCAGCC	0.156
CCCTATGA	-0.161
CCATTGCG	-0.0704
TCATTGGA	-0.163
CTCATTAA	-0.107
TGAGACAA	-0.0128
AAGGCACT	-0.143
ATGCGGTG	-0.279
CCTTGAAA	-0.127
GAACCATA	0.106
ATAAGCAA	-0.14
TGAGTACA	-0.352
CTCCCTGC	-0.304
ATTGCACG	0.0832
ACACCTCG	0.168
GAGGACGA	0.0428
TGATGAAA	-0.176
GCAGGAAA	-0.174
CGAAGAAC	0.0729

Sequence	PBM E-score
AATTAGTA	-0.0746
AGTCTCTA	-0.307
CCGGTAGC	0.164
CTCAGTTA	-0.092
CTCTCTCC	-0.0466
CGGTCGAG	0.088
GTGCGAGA	-0.156
ATTCAGAG	0.0253
CCGAACTA	0.395
CACGAGAC	-0.145
GTCGGTCA	0.0354
CGGGTCAC	0.19
AAACGGTT	-0.0389
ACGCCTAG	-0.206
AGAATCGA	-0.0393
CGTATCAG	0.0327
AAAGTCCG	0.206
AGACTGAA	-0.22
CCCGTTCG	0.261
ACCTCCAT	-0.0501
AACTTGGT	-0.159
CCCGGACA	0.264
ACACGCGA	-0.101
ATCCAGCC	0.0534
CTTATGTA	-0.114

Sequence	PBM E-score
TAACGTAA	-0.132
TAGATTCA	-0.0317
CTTTTAAC	-0.164
GTGCGTCA	-0.101
CAACTAGC	0.0199
GGTACGCA	-0.0106
GTGCCGTA	0.125
CGGACAGA	0.129
ACCGTTAG	-0.159
AGCCAATG	-0.196
AATATGAC	-0.0101
CCTATTAA	-0.0295
CAGATAAC	0.0308
ACTCGTGG	-0.22
CTCTCAGA	-0.238
CCCTGCCG	0.165
GAGGAGGA	-0.152
AATTATTG	-0.039
ACCGGTAA	0.183
GTGTCGTA	-0.0741
CCACGGGG	0.00664
CCGCCAAC	0.233
GTGAGAAA	0.0503
AAAGAGTT	-0.153
AAACAACC	0.00653

Sequence	PBM E-score
GTTAGAAA	0.1
CCCGCATA	0.195
GCCGTACA	0.0973
AGAGAGGA	-0.157
ATTTCTGC	0.00147
CTTAAGCA	-0.0708
CGTCAGCC	0.0877
ATAATACA	0.0246
CGAACAAC	0.0944
ATAGTCCG	0.101
GATGGGCC	0.0871
GATGAACC	0.14
TAAGAGAA	-0.344
GATGGCTA	0.1
TGAACACA	-0.03
AGTCATAG	-0.233
CCCTTTCG	0.124
AACTTCAC	-0.137
AGTTCTAG	-0.0358
AGGCTAGC	-0.217
ATGTAACG	0.085
CAGCCAAG	-0.308
AACTGGGG	-0.0271
ATACTACC	-0.0201
AAAGACAC	0.121

Sequence	PBM E-score
AAACTAGA	-0.167
CTCTACTC	-0.106
GTTAGAGA	-0.2
AATTCCCA	-0.299
AGAACTTA	0.0665
ATAGGTAC	-0.0409
CTTTCGAA	-0.204
AGACCATG	-0.164
ACCTAGGG	-0.158
ATATCACA	-0.136
AAACGTAA	-0.046
CAAGGGAC	-0.332
CACGGGTA	0.333
AGATGGTA	0.107
AGCGTCTG	-0.164
TATTCAGA	-0.164
ATCGTTCC	0.234
ACCCTTAG	-0.25
CTGCTAAA	-0.0654
CGTGGCGC	-0.216
AGTTACAT	-0.102
GCGGGACA	0.163
TACCAATA	-0.261
AAAAAGCA	-0.185
GAGTTCAC	-0.0366

Sequence	PBM E-score
AAAGGATG	-0.155
CCACATAG	0.0856
AAAGTCAC	0.0146
CCCCCTAA	-0.318
TCACTACA	0.00111
CAGTAAGG	-0.225
CTTAGCGC	0.0274
AGAACGAC	-0.0248
AAACGAAT	-0.0774
GGACCGCC	-0.0138
ACCGTGCT	0.0286
AGTATTGG	-0.195
CAGGTATG	-0.0124
CGCTCGAC	-0.255
TCGGATCA	0.46
CTCCTGAC	-0.221
AGAATTAT	0.0197
ACAGCTGA	-0.149
ACGTCGGA	0.389
CGCTCCCG	0.286
CTGTGCCA	-0.0441
CATGGACG	-0.0825
CGCGCCGC	0.168
ACCAACCC	-0.13
ACTGCTCC	0.0514

Sequence	PBM E-score
AGTCGGGC	0.157
GGAGCTGA	-0.0874
CTTCCTCC	0.00764
AGGTTCAG	-0.0723
CTTAAAAA	-0.232
AACGCGTG	-0.167
CTAAGCTA	-0.0905
AAGTCACC	-0.0111
AAGGGTAA	-0.0859
CCAGAGGA	-0.178
AAATCAGG	-0.307
ACACGAGG	-0.0575
CCGAACGC	0.415
GATGGTCA	0.0045
TGCAAGAA	-0.0278
CCTCCGAG	0.4
GGATCGGA	0.402
GAATGGAA	0.0587
CTGAACAA	-0.0548
CTTAGATC	-0.216
CGAAATCG	0.242
ACGGCTAG	0.12
GGTGACTA	-0.00959
AACCCATT	-0.00875
CCTGATGC	0.0382

Sequence	PBM E-score
ACTGTATG	0.0265
CGGCCAGA	0.172
CGTGTAGA	-0.0786
CACGTCAC	-0.147
GGGATCCA	0.14
ATATAACG	-0.0292
CGTACGGC	-0.0501
CAATATAA	0.151
TGCGAGCA	-0.165
ATTGAACA	0.0813
ATACCCAG	-0.255
CCCGAGAA	0.44
AGGTGACG	-0.178
AAGAGTCG	0.0179
CGCGCGTC	0.0521
CGCAGCGA	-0.0944
ATATGAGG	-0.0378
ATTGTCGC	-0.0208
GAAACGGA	0.283
GGCCACAA	-0.217
CGAAGCCC	0.109
AAGCAGTG	-0.0258
CGCAGGCC	-0.0264
CCGGCACG	0.293
GGGTCCCA	-0.0319

Sequence	PBM E-score
AAAGCTAG	-0.296
CTCGAGGC	-0.0834
CGGCTAAG	0.321
CCTCTATA	-0.264
ACGAAAAA	-0.189
CCCCGCAG	0.15
GTCGAACA	-0.044
ACTTTGAA	-0.112
CAGTAGTC	-0.21
CACCGCTC	0.0568
ATAAGGGC	0.0162
ATCACCAC	-0.135
AGGCAAAC	-0.216
ACTTAGCG	-0.0252
GTGCACGA	-0.264
CCTTCTCG	-0.0615
CAGAGAGG	-0.216
GGAGTGAC	0.0112
ATGATATG	-0.0607
